What all share (conditions): 20 mM HEPES pH 7.9, 100 mM NaCl, 1 mM DTT, 0.2 mg/mL BSA, 0.02% Triton X-100, 2% milk, 0.4 mg/mL salmon testes DNA; 1 h; temperature not stated; high values mean tight binding; double strand, one strand shown; sequences stand for … in GCCTAGCAC…GTGCTAGGTCTTGATTCGCTTGACGCTGCTG
For one test, the target named is PU.1 (IVT) (UniProt P17947). Briefly: protein-binding microarray (PBM).
Test [1] has as its target PU.1 (endogenous, THP-1 nuclear extract) (UniProt P17947). Briefly: nuclear extract protein-binding microarray (nextPBM).
The target in test [2] is T1, FLI1 (endogenous, THP-1 nuclear extract) (UniProt Q01543).
T1 sequence: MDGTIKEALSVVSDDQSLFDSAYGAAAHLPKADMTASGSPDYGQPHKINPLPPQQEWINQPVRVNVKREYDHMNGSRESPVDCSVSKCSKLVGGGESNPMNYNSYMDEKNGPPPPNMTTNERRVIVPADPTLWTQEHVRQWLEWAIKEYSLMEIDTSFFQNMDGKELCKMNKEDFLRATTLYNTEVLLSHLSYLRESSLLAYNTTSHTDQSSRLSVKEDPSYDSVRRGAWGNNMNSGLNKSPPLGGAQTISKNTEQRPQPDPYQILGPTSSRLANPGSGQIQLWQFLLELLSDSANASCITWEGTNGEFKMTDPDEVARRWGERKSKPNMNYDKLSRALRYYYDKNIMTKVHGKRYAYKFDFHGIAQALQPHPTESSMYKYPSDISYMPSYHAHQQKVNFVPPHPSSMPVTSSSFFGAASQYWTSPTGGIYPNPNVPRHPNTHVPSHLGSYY
Described as above.

Here are results for 60 sequences from publication PMC6451091.

Some of the results follow. For part of these data: At the low end of the ranking, values are background and their order means little. For part of these data: Measured with an extract: partners may take part in the binding.

Take AATAAAAGGAACTGCAGGCA: the binding signal with PU.1 (IVT) came out at 1.79 z-score; in test [1], 2.19 z-score; in test [2] it was 0.745 z-score.
The matching figures for CCGATGGGGAAGTGGTGCTG: 4.58 z-score, 5.1 z-score and 1.78 z-score.
Regarding CAAGAGGGGAAGTGCCTTGC, the values for the binding signal (with PU.1 (IVT); in test [1]; in test [2]) were 3.97 z-score, 4.59 z-score and 2.08 z-score, respectively.
As to TGCAGGGGGAAGTGACTGAT, the binding signal in the test with PU.1 (IVT) was found to be 3.63 z-score; in test [1] it was 3.93 z-score; in test [2] it was 1.85 z-score.
The matching figures for TGAAAGAAGAAGTGCAACCA: 2.19 z-score, 2.61 z-score and -0.0474 z-score.
With GATAAGAGGAAGTCCTCTAT, the binding signal with PU.1 (IVT) was determined as 5.51 z-score; in test [1] it was 6.55 z-score; in test [2] it was 2.65 z-score.
Consider GAAAAGGGGAACTGCCTTGG, for which the binding signal with PU.1 (IVT) amounted to 6.46 z-score; in test [1], 6.62 z-score; in test [2] it was 1.86 z-score.
In the case of GATAAGAGGAAGTTCTCTGT, the binding signal was 6.77 z-score in the test with PU.1 (IVT), 6.77 z-score in test [1] and 3.47 z-score in test [2].
As to AAATTAAGGAAGTGAGAAAA, the binding signal in the test with PU.1 (IVT) was 6.2 z-score; in test [1], 6.32 z-score; in test [2] it was 2.54 z-score.
CAAAAAGGGAAGGGGATGCT: the binding signal was found to be 2.11 z-score with PU.1 (IVT), 2.8 z-score in test [1] and 0.868 z-score in test [2].
In the case of TAGATGAGGAAGTGAGCAGA, the binding signal with PU.1 (IVT) worked out at 5.46 z-score; in test [1], 6.15 z-score; in test [2], 2.41 z-score.
For the sequence GCGAAGGGGAAGTCTTCCCT, the binding signal is 4.35 z-score in the test with PU.1 (IVT), 4.25 z-score in test [1] and 1.85 z-score in test [2].
With CAAAGCGGGAAGTGGGTGGG, the binding signal with PU.1 (IVT) was 2.86 z-score; in test [1], 3.04 z-score; in test [2], 1.77 z-score.
Regarding TCAAAGAGGAAGTGACATTT, the binding signal in the test with PU.1 (IVT) is 7.03 z-score; in test [1] it was 6.84 z-score; in test [2], 3.73 z-score.
In the case of AAAAAAGGGAAGTGGATGCT, the binding signal turned out to be 7.67 z-score with PU.1 (IVT), 7.06 z-score in test [1] and 3.48 z-score in test [2].
Consider AGGAAGGGGAAGTGCCCCAG, for which the results for the binding signal (in the test with PU.1 (IVT); in test [1]; in test [2]) were 5.32 z-score, 6.59 z-score and 2.98 z-score, respectively.
Turning to AAAAACAGGAAGTGGGGTGC, the values for the binding signal (with PU.1 (IVT); in test [1]; in test [2]) were 7.66 z-score, 7.16 z-score and 5.26 z-score, respectively.
The matching figures for AAAATGAGGAAGTGTCAGGG: 7.99 z-score, 7.36 z-score and 3.12 z-score.
As for GAGAAGAGGAAATGGTGAGA, the binding signal with PU.1 (IVT) was found to be 2.65 z-score; in test [1], 2.62 z-score; in test [2] it was 2.42 z-score.
Take GATTTGGGGAAGTGAGGGCT: the figures for the binding signal (with PU.1 (IVT); in test [1]; in test [2]) were 4.91 z-score, 5.96 z-score and 1.9 z-score, respectively.
The matching figures for GGAAAGAGGAACTAGCCTTG: 7.04 z-score, 6.75 z-score and 2.84 z-score.
Consider AAAAACAGGAAGTGGGGAAA, for which the values for the binding signal (with PU.1 (IVT); in test [1]; in test [2]) were 8.01 z-score, 7.22 z-score and 5.2 z-score, respectively.
In the same order, the values of GAAAACAGGAAGTGCTTTCA are 8.31 z-score, 7.19 z-score and 5.39 z-score.
Turning to CAAAAAGGGAAGTGGATGTT, the binding signal with PU.1 (IVT) came to 6.49 z-score; in test [1] it was 6.6 z-score; in test [2] it was 3.25 z-score.
Take TGAAAGAGGAAGTGCTATCT: the binding signal was found to be 8.02 z-score with PU.1 (IVT), 7.35 z-score in test [1] and 3.97 z-score in test [2].
In the case of GAAATGAGGAAGTGCTAGTG, the binding signal with PU.1 (IVT) amounted to 8.07 z-score; in test [1] it was 7.31 z-score; in test [2], 4.42 z-score.
As for AAAAGGAGGAAGTGATCCCT, the binding signal with PU.1 (IVT) was found to be 6.77 z-score; in test [1], 6.78 z-score; in test [2], 3.34 z-score.
In the case of TTAGAGGGGAACTGCAAGGC, the binding signal with PU.1 (IVT) amounted to 1.64 z-score; in test [1] it was 1.8 z-score; in test [2], 0.0869 z-score.
For CGAAAAGGGAAGTGCTAAAC, the binding signal with PU.1 (IVT) is 6.15 z-score; in test [1] it was 6.61 z-score; in test [2], 2.32 z-score.
Turning to TATATCAGGAAGTGGTTAAA, the binding signal in the test with PU.1 (IVT) amounted to 3.41 z-score; in test [1], 3.49 z-score; in test [2], 3.02 z-score.
On to GATAAGAGGAAGTCATCTGT, for which the binding signal stood at 6.17 z-score with PU.1 (IVT), 6.49 z-score in test [1] and 3.17 z-score in test [2].
The matching figures for AGAAAGAGGAACTGACTGAC: 6.61 z-score, 6.69 z-score and 2.79 z-score.
On to CAAAACGGGAAGTGGATGCT, for which the binding signal was determined as 7.04 z-score with PU.1 (IVT), 6.94 z-score in test [1] and 3.36 z-score in test [2].
With CAAATGAGGAACTGGTGCGG, the binding signal worked out at 5.9 z-score with PU.1 (IVT), 6.34 z-score in test [1] and 2.24 z-score in test [2].
In the case of GGGATGAGGAAGTCTGAAAT, the binding signal with PU.1 (IVT) was 4.7 z-score; in test [1], 4.92 z-score; in test [2] it was 2.38 z-score.
On to GAATTAGGGAAGTGAACAAT, for which the binding signal was found to be 5.84 z-score in the test with PU.1 (IVT), 6.48 z-score in test [1] and 2.23 z-score in test [2].
On to CAAAAAGGGAAGTGGAAGCT, for which the results for the binding signal (in the test with PU.1 (IVT); in test [1]; in test [2]) were 6.2 z-score, 6.58 z-score and 3.11 z-score, respectively.
As to TAGAAGAGGAAGTGGATGAT, the figures for the binding signal (with PU.1 (IVT); in test [1]; in test [2]) were 5.98 z-score, 6.4 z-score and 3.3 z-score, respectively.
Turning to GAAAAGAGGAAGTCAAACCA, the binding signal amounted to 8.22 z-score in the test with PU.1 (IVT), 7.48 z-score in test [1] and 3.92 z-score in test [2].
On to AAAAAAAGGAAGTGAACAAA, for which the binding signal amounted to 6.63 z-score with PU.1 (IVT), 6.37 z-score in test [1] and 3.12 z-score in test [2].
The matching figures for AAGATGAGGAAGTGAGTGTA: 6.13 z-score, 6.4 z-score and 2.74 z-score.
As to CAAAAAGGGAAATGGATGCT, the binding signal with PU.1 (IVT) amounted to 3.74 z-score; in test [1], 3.12 z-score; in test [2], 1.63 z-score.
As to CTGCTGAGGAAGTGAGAGAC, the binding signal with PU.1 (IVT) stood at 2.48 z-score; in test [1] it was 2.83 z-score; in test [2], 1.61 z-score.
Consider AAAATGAGGAACTGCTGTCT, for which the binding signal stood at 6.9 z-score in the test with PU.1 (IVT), 6.74 z-score in test [1] and 2.57 z-score in test [2].
Regarding GAAATGAGGAAGTACCTAAA, the results for the binding signal (in the test with PU.1 (IVT); in test [1]; in test [2]) were 8.71 z-score, 7.53 z-score and 4.01 z-score, respectively.
The matching figures for CAAATGGGGAAGTGATGACA: 6.84 z-score, 6.78 z-score and 3.09 z-score.
The matching figures for CAAAAAGGGAAGTCGATGCT: 6.3 z-score, 6.39 z-score and 2.86 z-score.
With CGTAAGGGGAAGTGCTAAAC, the binding signal with PU.1 (IVT) was determined as 5.17 z-score; in test [1] it was 5.55 z-score; in test [2] it was 2.33 z-score.
Regarding CAGAAGGGGAAGTCTTTGTT, the binding signal with PU.1 (IVT) worked out at 5.44 z-score; in test [1], 5.01 z-score; in test [2], 2.52 z-score.
With GACAGGAGGAAGTGGAACTC, the binding signal with PU.1 (IVT) was 4.7 z-score; in test [1], 4.85 z-score; in test [2], 2.88 z-score.
In the case of AAAAAGGGGAAGTCTGGACT, the results for the binding signal (in the test with PU.1 (IVT); in test [1]; in test [2]) were 7.65 z-score, 7.12 z-score and 3.26 z-score, respectively.
As to GGAAAAAGGAAGTGATGATT, the results for the binding signal (with PU.1 (IVT); in test [1]; in test [2]) were 5.74 z-score, 5.61 z-score and 3.17 z-score, respectively.
In the same order, the values of CGAAAGGGGAAGTGCTAATC are 7.39 z-score, 7.28 z-score and 4.04 z-score.
As to TGGGAGAGGAAGTGAGAGAT, the binding signal in the test with PU.1 (IVT) stood at 3.7 z-score; in test [1] it was 4.05 z-score; in test [2], 3.09 z-score.
Regarding TGAAACAGGAAGTACTGTGA, the binding signal came out at 6.92 z-score with PU.1 (IVT), 6.81 z-score in test [1] and 4.91 z-score in test [2].
Consider AAAAAAAGGAAGTCAAAGTC, for which the values for the binding signal (in the test with PU.1 (IVT); in test [1]; in test [2]) were 6.75 z-score, 5.92 z-score and 2.68 z-score, respectively.
For AGGCAGGGGAAGTGGCCGTC, the binding signal with PU.1 (IVT) came to 3.22 z-score; in test [1], 2.77 z-score; in test [2] it was 2.15 z-score.
In the same order, the values of GAAAAAAGGAACTGCTGAGA are 4.01 z-score, 3.79 z-score and 1.35 z-score.
Regarding GGCGGGAGGAAGTGCTCCAT, the binding signal was 2.93 z-score with PU.1 (IVT), 3.11 z-score in test [1] and 2.66 z-score in test [2].
For CCAAAGAGGAAGTGGCATCA, the values for the binding signal (in the test with PU.1 (IVT); in test [1]; in test [2]) were 6.51 z-score, 6.81 z-score and 3.65 z-score, respectively.
